{"source": "the supplement of paper PMC4604168 (melanoma cell lines)", "note": "The list shows a part of the results. Single values are uncertain, as repeats are few or missing.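 Note: cells treated in 1,536-well plates, then fixed and DAPI-stained, with nuclei counted from automated high-throughput microscope images.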"}
{"test_system": "A101D", "test": "cell count relative to DMSO control; melanoma cells; higher = more viable cells", "settings": "library dose: standard library concentration; 72 h", "units": {"cell count": "%"}}
{"smiles": "C#Cc1cccc(Nc2ncnc3cc(OCCOC)c(OCCOC)cc23)c1", "note": "[erlotinib] + COc1cc(N2CCC(N3CCN(C)CC3)CC2)ccc1Nc1ncc(Cl)c(Nc2ccccc2S(=O)(=O)C(C)C)n1 [NVP-TAE684] (first compound 4 µM, partner dose 0.4 µM)", "cell count": 56.6}
{"smiles": "COCC[n+]1c2c(n(Cc3cnccn3)c1C)C(=O)c1ccccc1C2=O", "note": "+ COc1ccc(-c2ccc3c(N4CCOCC4)nc(N4C[C@@H](C)O[C@@H](C)C4)nc3n2)cc1CO [KU0063794] (first compound 0.002 µM, partner dose 0.1 µM)", "cell count": 73}
{"smiles": "O=C(CCCCCCC(=O)Nc1ccccc1)NO", "note": "[vorinostat] + Oc1cc(-c2nc(-c3ccccc3)[nH]c2-c2ccncc2)ccc1Cl [L779450] (first compound 0.4 µM, partner dose 1 µM)", "cell count": 72}
{"smiles": "C#Cc1cccc(Nc2ncnc3cc(OCCOC)c(OCCOC)cc23)c1", "note": "[erlotinib] + N#Cc1c(O)c2c(-c3ccc(-c4ccccc4O)cc3)csc2[nH]c1=O [A769662] (first compound 4 µM, partner dose 10 µM)", "cell count": 77.7}
{"smiles": "Cn1c(Nc2ccc(C(F)(F)F)cc2)nc2cc(Oc3ccnc(-c4ncc(C(F)(F)F)[nH]4)c3)ccc21", "note": "+ O=C1NC(=O)/C(=C/c2ccc(-c3ccc(F)cc3O)o2)S1 [AS252424] (first compound 0.4 µM, partner dose 5 µM)", "cell count": 57.6}
{"smiles": "OCc1c[nH]c2ccccc12", "note": "[Indole-3-carbinol] + Oc1cc(-c2nc(-c3ccccc3)[nH]c2-c2ccncc2)ccc1Cl [L779450] (first compound 4 µM, partner dose 1 µM)", "cell count": 60.8}
{"smiles": "COCC[n+]1c2c(n(Cc3cnccn3)c1C)C(=O)c1ccccc1C2=O", "note": "+ Oc1cc(-c2nc(-c3ccccc3)[nH]c2-c2ccncc2)ccc1Cl [L779450] (first compound 0.002 µM, partner dose 1 µM)", "cell count": 50.1}
{"smiles": "Cn1c(Nc2ccc(C(F)(F)F)cc2)nc2cc(Oc3ccnc(-c4ncc(C(F)(F)F)[nH]4)c3)ccc21", "note": "+ Cn1cc(/C=C2\\C(=O)Nc3cccnc32)c2ccccc21 [GW441756] (first compound 0.4 µM, partner dose 2 µM)", "cell count": 59.6}
{"smiles": "O=C(CCCCCCC(=O)Nc1ccccc1)NO", "note": "[vorinostat] + COc1ccc(-c2ccc3c(N4CCOCC4)nc(N4C[C@@H](C)O[C@@H](C)C4)nc3n2)cc1CO [KU0063794] (first compound 0.4 µM, partner dose 0.1 µM)", "cell count": 80.5}
{"smiles": "OCc1c[nH]c2ccccc12", "note": "[Indole-3-carbinol] + Cc1cc([N+](=O)[O-])ccc1NS(=O)(=O)c1cc(Cl)ccc1Cl [FH535] (first compound 4 µM, partner dose 5 µM)", "cell count": 61.2}
{"smiles": "O=C(CCCCCCC(=O)Nc1ccccc1)NO", "note": "[vorinostat] + O=c1cc(-c2cccc3c2Sc2ccccc2S3)oc(N2CCOCC2)c1 [KU55933] (first compound 0.4 µM, partner dose 5 µM)", "cell count": 77.7}
{"smiles": "C#Cc1cccc(Nc2ncnc3cc(OCCOC)c(OCCOC)cc23)c1", "note": "[erlotinib] + Oc1cc(-c2nc(-c3ccccc3)[nH]c2-c2ccncc2)ccc1Cl [L779450] (first compound 4 µM, partner dose 1 µM)", "cell count": 53}
{"smiles": "Cn1c(Nc2ccc(C(F)(F)F)cc2)nc2cc(Oc3ccnc(-c4ncc(C(F)(F)F)[nH]4)c3)ccc21", "note": "+ Oc1cc(-c2nc(-c3ccccc3)[nH]c2-c2ccncc2)ccc1Cl [L779450] (first compound 0.4 µM, partner dose 1 µM)", "cell count": 51}
{"smiles": "COCC[n+]1c2c(n(Cc3cnccn3)c1C)C(=O)c1ccccc1C2=O", "note": "+ O=C(O)C(=O)Nc1sc2c(c1C(=O)O)CCNC2 [TCS401] (first compound 0.002 µM, partner dose 8.33333 µM)", "cell count": 71.3}
{"smiles": "Cn1c(Nc2ccc(C(F)(F)F)cc2)nc2cc(Oc3ccnc(-c4ncc(C(F)(F)F)[nH]4)c3)ccc21", "note": "+ O=C(O)C(=O)Nc1sc2c(c1C(=O)O)CCNC2 [TCS401] (first compound 0.4 µM, partner dose 8.33333 µM)", "cell count": 66.1}
{"smiles": "Nc1cccc2c1CN(C1CCC(=O)NC1=O)C2=O", "note": "(stereo not given) [lenalidomide] + COc1ccc2c(c1)CCC1C2CCC2(C)C(NCCCCCCN3C(=O)C=CC3=O)CCC12 [U73122] (first compound 5 µM, partner dose 2 µM)", "cell count": 71.1}
{"smiles": "Cn1c(Nc2ccc(C(F)(F)F)cc2)nc2cc(Oc3ccnc(-c4ncc(C(F)(F)F)[nH]4)c3)ccc21", "note": "+ O=c1cc(-c2cccc3c2Sc2ccccc2S3)oc(N2CCOCC2)c1 [KU55933] (first compound 0.4 µM, partner dose 5 µM)", "cell count": 51.2}
{"smiles": "O=C(CCCCCCC(=O)Nc1ccccc1)NO", "note": "[vorinostat] + Cn1cc(/C=C2\\C(=O)Nc3cccnc32)c2ccccc21 [GW441756] (first compound 0.4 µM, partner dose 2 µM)", "cell count": 100}
{"smiles": "Clc1ccc(Nc2nnc(Cc3ccncc3)c3ccccc23)cc1", "note": "[vatalanib] + c1cc(-c2cnn3cc(-c4ccc(OCCN5CCCCC5)cc4)cnc23)ccn1 [Dorsomorphin] (first compound 10 µM, partner dose 2 µM)", "cell count": 67.9}
{"smiles": "OCc1c[nH]c2ccccc12", "note": "[Indole-3-carbinol] + Oc1nc(-c2ccc(C(F)(F)F)cc2)nc2c1CSCC2 [XAV939] (first compound 4 µM, partner dose 10 µM)", "cell count": 77.8}
{"smiles": "C#Cc1cccc(Nc2ncnc3cc(OCCOC)c(OCCOC)cc23)c1", "note": "[erlotinib] + COc1ccc(COc2ccc(Cc3cnc(N)nc3N)cc2OC)cc1 [GW2580] (first compound 4 µM, partner dose 5 µM)", "cell count": 73.7}
{"smiles": "O=C(CCCCCCC(=O)Nc1ccccc1)NO", "note": "[vorinostat] + COC(=O)c1sccc1S(=O)(=O)Nc1ccc(Nc2ccccc2)cc1OC [GSK0660] (first compound 0.4 µM, partner dose 5 µM)", "cell count": 101}
{"smiles": "Nc1cccc2c1CN(C1CCC(=O)NC1=O)C2=O", "note": "(stereo not given) [lenalidomide] + COc1ccc(-c2ccc3c(N4CCOCC4)nc(N4C[C@@H](C)O[C@@H](C)C4)nc3n2)cc1CO [KU0063794] (first compound 5 µM, partner dose 0.1 µM)", "cell count": 98.9}
{"smiles": "O=C(CCCCCCC(=O)Nc1ccccc1)NO", "note": "[vorinostat] + COc1ccc2c(c1)CCC1C2CCC2(C)C(NCCCCCCN3C(=O)C=CC3=O)CCC12 [U73122] (first compound 0.4 µM, partner dose 2 µM)", "cell count": 64.6}
{"smiles": "Cn1c(Nc2ccc(C(F)(F)F)cc2)nc2cc(Oc3ccnc(-c4ncc(C(F)(F)F)[nH]4)c3)ccc21", "note": "+ CCCCCCCCCCCC1=C(O)C(=O)C=C(O)C1=O [Embelin] (first compound 0.4 µM, partner dose 6 µM)", "cell count": 55.8}
